Assay results taken from PMC4336329 (PLoS ONE, 2015).
About 2,200 (0.71%) of roughly 310,000 compounds showed an effect of 50% or more. The effect is printed as a negative number. Some of the results follow.

Target: human ether-à-go-go-related gene (hERG) potassium channel (human, UniProt Q12809)
Assay: primary screen, population patch clamp on CHO cells stably expressing hERG

Sequence of human ether-à-go-go-related gene (hERG) potassium channel (Q12809 whole entry, looked up): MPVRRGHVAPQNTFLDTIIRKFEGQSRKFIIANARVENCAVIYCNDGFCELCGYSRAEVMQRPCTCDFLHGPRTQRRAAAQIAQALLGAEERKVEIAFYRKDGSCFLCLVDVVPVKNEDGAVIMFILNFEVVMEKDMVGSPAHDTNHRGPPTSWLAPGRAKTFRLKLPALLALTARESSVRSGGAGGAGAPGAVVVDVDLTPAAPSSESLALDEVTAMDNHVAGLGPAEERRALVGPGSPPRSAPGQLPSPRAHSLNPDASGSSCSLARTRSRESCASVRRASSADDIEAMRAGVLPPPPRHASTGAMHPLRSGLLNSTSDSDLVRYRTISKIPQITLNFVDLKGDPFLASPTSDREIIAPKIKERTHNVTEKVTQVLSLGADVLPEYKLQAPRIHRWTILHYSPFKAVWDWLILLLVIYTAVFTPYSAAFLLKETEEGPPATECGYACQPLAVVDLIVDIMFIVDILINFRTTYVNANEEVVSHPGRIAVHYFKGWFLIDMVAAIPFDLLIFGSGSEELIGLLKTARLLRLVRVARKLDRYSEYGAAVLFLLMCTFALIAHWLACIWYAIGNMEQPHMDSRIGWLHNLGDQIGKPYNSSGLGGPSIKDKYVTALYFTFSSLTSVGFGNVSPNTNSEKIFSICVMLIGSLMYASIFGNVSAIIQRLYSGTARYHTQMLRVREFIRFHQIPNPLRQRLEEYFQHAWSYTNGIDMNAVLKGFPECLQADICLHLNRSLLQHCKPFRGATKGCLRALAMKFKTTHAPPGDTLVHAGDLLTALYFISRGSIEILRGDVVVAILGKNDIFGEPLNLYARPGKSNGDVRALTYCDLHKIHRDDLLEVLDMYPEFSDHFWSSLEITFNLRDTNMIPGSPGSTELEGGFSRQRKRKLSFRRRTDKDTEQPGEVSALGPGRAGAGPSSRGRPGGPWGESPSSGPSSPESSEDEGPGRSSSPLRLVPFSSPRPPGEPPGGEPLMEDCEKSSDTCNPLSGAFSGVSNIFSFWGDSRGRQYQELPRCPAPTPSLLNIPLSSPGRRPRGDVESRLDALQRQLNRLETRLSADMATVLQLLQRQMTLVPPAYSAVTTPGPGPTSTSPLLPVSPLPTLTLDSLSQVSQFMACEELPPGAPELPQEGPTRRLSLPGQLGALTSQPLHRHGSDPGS

Row | SMILES | hERG current change (%, negative = inhibition) at 1uM [%]
1 | O=C(NCCc1ccccc1Cl)C1CCC(=O)N(Cc2ccc(Cl)cc2)C1 (stereo not drawn) | -15.8
2 | Cc1ccc2nc(-c3ccc(NC(=O)CN4C(=O)NC(C)(c5ccc(OC(F)F)cc5)C4=O)cc3)sc2c1 (stereo not drawn) | 14.5
3 | CC(=O)NS(=O)(=O)c1ccc(NC(=O)C(Sc2ccccc2)c2ccccc2)cc1 (stereo not drawn) | 7.09
4 | COc1ccccc1C1c2ccc3ccccc3c2Oc2ncn(CCN(C)C)c(=N)c21 (stereo not drawn) | -7
5 | CCc1ccccc1NC(=S)N1CCCCCC1 | 14.7
6 | CCOC(=O)c1ccc(NC(=O)CSc2nc(N)c(NC(=O)c3ccc(Br)o3)c(=O)[nH]2)cc1 | 8.98
7 | COc1cc(C(=O)O/N=C2/C=C(C)C(=O)C=C2C)cc(OC)c1OC | 4.89
8 | O=C(CNC(=O)c1ccccc1F)OCc1csc(-c2ccccc2)n1 | 6.6
9 | CCOC(=O)c1cn(Cc2ccccc2)c(C(=O)OC(C)(C)C)c1O | 12.4
10 | O=S(=O)(Cc1ccccc1)NCc1cccnc1 | -5.55
11 | Cc1ccccc1NC(=O)COC(=O)C1(C)CC1(Cl)Cl (stereo not drawn) | -1.44
12 | COc1cc(CC(=O)OCC(=O)NCC(C)C)cc(OC)c1OC | 13.6
13 | Cc1ccc(CNC(=O)COC(=O)c2cccc(S(=O)(=O)N3CCCCC3)c2)cc1 | -4.91
14 | Cc1ccccc1N(CC(=O)N/N=C/c1cc(C)n(-c2ccccc2C)c1C)S(C)(=O)=O | 9.8
15 | NS(=O)(=O)c1ccc(N=Nc2c(=O)[nH]n3c(=O)c4c([nH]c23)CCCC4)cc1 | 20.6
16 | Cc1csc(NC(=O)CCc2ccc(S(=O)(=O)N3CCOCC3)cc2)n1 | 0.101
17 | O=C(Nc1ccc(S(=O)(=O)O)cc1)c1ccc2c(c1)S(=O)(=O)c1ccccc1C2=O | 16.7
18 | COc1ccc(CCN=c2c([N+](=O)[O-])nn(-c3cccc(C)c3)n2O)cc1OC | -6.3
19 | O=C1CCc2cc(S(=O)(=O)Nc3ccc(F)cc3)cc3c2N1CC3 | 6.99
20 | COc1cc(OC)cc(C(=O)NCC2CCCN(C(=O)c3csc(C)n3)C2)c1 (stereo not drawn) | 10.6
21 | CC(=O)c1c(C)[nH]c(C(=O)CN2C(=O)NC(C)(c3ccc4c(c3)OCO4)C2=O)c1C (stereo not drawn) | 6.27

Row | SMILES | hERG current change (%, negative = inhibition) at 1uM [%]
22 | CCCC(=O)NC(c1ccc(OCC)cc1)c1ccc(OC)c(OC)c1 (stereo not drawn) | 11.9
23 | O=C(CSc1nc2cc(Cl)ccc2s1)N1CCCc2ccccc21 | 3.83
24 | CN(CCC#N)C(=O)CC(Cc1ccccc1)C1CCOC(C)(C)C1 (stereo not drawn) | 7.81
25 | Cc1ccc(C(=O)Nc2ccc(N3CCN(C(=O)c4ccco4)CC3)cc2)cc1 | 6.36
26 | Cc1ccc(C)c(NC(=S)N(CCc2ccncc2)C(C)C)c1 | -11.9
27 | O=C(COC(=O)c1ccc(-c2ccc([N+](=O)[O-])cc2)o1)NC(=O)NC12CC3CC(CC(C3)C1)C2 | 11.2
28 | COC(=O)CCC(=O)OC1(C)C(=O)C2=CN(CC(C)C)C(c3ccc(OC)cc3)=CC2=C(Br)C1=O (stereo not drawn) | 7.2
29 | O=C(/C=C/c1ccc(Cl)cc1Cl)NCCSCc1ccccc1 | 4.86
30 | CCCNCc1cc(OC)c(OCC(=O)Nc2ccccc2)cc1Br.Cl | -14.3
31 | CCC(C)c1ccc(NC(=S)Nc2ccc(OC)cc2C)cc1 (stereo not drawn) | -0.377
32 | O=c1[nH]c(SCCOc2cccc3ccccc23)nc2ccccc12 | 21.2
33 | Cc1ccc2c(c1)N(C(C)C(=O)NCCc1ccccc1)C(=O)CO2 (stereo not drawn) | 12.1
34 | CC(NCC(=O)Nc1cc(S(=O)(=O)N2CCCCCC2)ccc1Cl)c1ccccc1.O=C(O)C(=O)O (stereo not drawn) | 4.83
35 | S=C(Nc1ccc(N2CCOCC2)cc1)Nc1ccc2nc(-c3ccco3)c(-c3ccco3)nc2c1 | 5.05
36 | Cc1ccc(Cl)cc1Nc1nc(-c2sc(NC(=O)C(C)(C)C)nc2C)cs1 | -12.4
37 | Cc1nn(C)cc1S(=O)(=O)Nc1ccc2c(c1)OCCO2 | 6.99
38 | COc1ccc(N2CCN(C(=O)c3ccc(N(C)S(=O)(=O)c4ccc(C)cc4)cc3)CC2)cc1 | 2.36
39 | CC(C)=C1C(=O)NN(c2ccc(C)c(Cl)c2)C1=O | 17.7
40 | CCCCc1nc2cc(C(=O)N3CCCCC3C(=O)OC)ccc2o1 (stereo not drawn) | 8.54
41 | Cc1cccc(N2CCN(C(=O)CCc3nc4ccccc4[nH]3)CC2C)c1 (stereo not drawn) | 2.61
42 | CCOC(=O)c1c(C)[nH]c(C2=NNC(=Nc3ccc(OCC)cc3)SC2)c1C | 17.7
